Laboratory results published in a collection of fitness landscapes (doi:10.1016/j.celrep.2020.107928).
The full ranking holds about 81,000 sequences; the median of “one-hybrid fitness for binding NBS DNA” is about -0.1, and the highest 2% start at about 0.36. The list shows a part of the results.

B1: Caulobacter ParB omega fusion; a variant is named by its letters at X, in order, B8GW30 (parent)
chain: MESVVVGEPGMSEGRRGLGRGLSALLGEVDAAPAQAPGEQLGGSREAPIEILQRNPDQPRRTFREEDLEDLSNSIREKGVLQPILVRPSPDTAGEYQIVAGERAWRAAQRAGLKTVPIMVRELDDLAVLEIGIIENVQRADLNVLEEALSYKVLMEKFERTQENIAQTIGKSXSHVANXMRLLXLPDEVQSYLVSGELTAXHARAIAAAADPVALAKQIIEGGLSVRETEALARKAPNLSAGKSKGGRPPRVKDTDTQALESDLSSVLGLDVSIDHRGSTGTLTITYATLEQLDDLCNRLTRGI

Variants of: B1
Test: one-hybrid fitness for binding NBS DNA (the Noc-binding site; scaled: cognate 1, non-cognate 0); higher = stronger binding
Settings: with NBS DNA site
In short: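 Fitness here means the log change in variant-to-wild-type read ratio between plasmids sequenced before and after selection. That scale was set so cognate equals 1 and non-cognate equals 0. The selection was a bacterial one-hybrid screen of Caulobacter ParB libraries, four specificity codons randomised, in E. coli USO carrying a HIS3 reporter with the site 19 bp from the promoter, grown 48 hours at 37°C on M9-minus-histidine with 0.1 mM IPTG and 5 mM 3-AT.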

one-hybrid fitness for binding NBS DNA, 0.336:
QMKG

one-hybrid fitness for binding NBS DNA, 0.331:
QLKQ

one-hybrid fitness for binding NBS DNA, 0.332:
QARQ

one-hybrid fitness for binding NBS DNA, 0.314:
QRVC

one-hybrid fitness for binding NBS DNA, 0.242:
TYRR

one-hybrid fitness for binding NBS DNA, 0.581:
RQKS

one-hybrid fitness for binding NBS DNA, 0.512:
QCRC

one-hybrid fitness for binding NBS DNA, 0.238:
RCKM

one-hybrid fitness for binding NBS DNA, ≤ 0.2:
VLSL
MQAH
NPNF
QCAQ
YELP
KHGG
RGCW
RRMF
QHDV
FVSH
MLAR
SHRN
GYLC
RHCL
PQMA
KNQL
ETAA
WRWL
SLQN
GVAC
MEAC
WTAN
PGRG
IRLE
YLLL
GDQQ
NHNN
GGPT
LLQR
QIAP
NNGT
YMRL
TPMR
NGDT
TICP
VDKS
DPVC
VYLN
SCFV
TMWG
PSTS
SHLK
LGQY
QKIM
KLDV
QGIA
SCCE
WPQS
NPYF
RWRE
EPPV
RDVV
LKQH
AVKM
RWNF
AYQR
GERT
AYLD
TRYV
KMLL
CAQA
NGSD
WPRM
TWTR
VAKN
FGFS
GDSY
LVKG
VPFA
PGTP
DMGA
AMLI
AIQG
LATA
LAMI
LLFF
EKMR
QAWP
RSCN
AQHF
HRPA
CLDS
IEQW
PLRG
ASIP
VAMG
SRQA
NFFG
SPID
LMSN
TAHL
NHPT
ASCG
GHPF
RMYM
FALA
RNWW
YELL
RTWF
SGAN
GVFC
YVCL
CAET
AVKT
LIDC
KSMW
ITPC
PHAK
DKWS
PSDC
HKAC
NWNS
WTLY
MAWC
GPSA
CYSR
TEKY
MIDR
DAWS
MING
SWTS
NEPY
QVET
LANY
HPVQ
PVSY
RCLV
ISPR
VIAV
LPQE
CRSF
GPHC
VEEM
HPFR
LMIF
QLWV
GYES
ITWT
HILS
LAWC
PKNS
RLNK
FYKT
NWTF
MLSG
AVPT
TVET
HTHT
KYWS
YRGS
NEIT
SRAI
RCHG
LEPD
SRMM
HLSG
LAKT
YETG
RYHQ
QEHF
TRVQ
FGRL
CCPS
RHVN
MTTA
PDTD
YSEY
KPFA
RQGI
GWLM
DVLS
CCYR
QDHM
RVLG
PKAT
YRLP
RPPL
YPAC
IRGF
RMWC
NFHG
HFAS
TMLN
SCHF
KPVT

one-hybrid fitness for binding NBS DNA, 0.312:
QTGY

one-hybrid fitness for binding NBS DNA, 0.576:
QRPT
